# Measured values reported in the supplement of paper PMC7826260.
# This is one part of the list. Cleavage of a single-stranded DNA pool by Rep nickase domains was read by sequencing at 3 µM enzyme and 37 °C for 1 h; the strands have 90 letters, of which the middle is given. The score is log2 (uncut reads / reads without enzyme); more negative means more cut, near 0 not cut, and no call is made. Because reads are shares of a total, they shift together; uncut strands gain when others are lost, and binding without cutting may add a little.
# Key:
# Assay in all cases: uncleaved DNA left, log2 of reads against the no-enzyme library (log2 ratio); higher = less cleavage (more negative = more Rep cleavage of the k-mer); sequences stand for … in CTCGTCCG…ACCGGAGA
# [1] = system: T1, Rep nickase domain of Muscovy duck circovirus
# T1 sequence (residues 1-111, tag not shown): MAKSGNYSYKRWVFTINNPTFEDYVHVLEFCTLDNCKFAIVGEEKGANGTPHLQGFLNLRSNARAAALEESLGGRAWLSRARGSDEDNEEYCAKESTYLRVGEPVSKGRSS
# Protocol: (§1)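 A pool of 90-nt single-stranded DNAs with seven random bases just before the constant AC of the nick site (name = the seven bases) was cut by 3 µM recombinant His6-SUMO-tagged Rep nickase domain (300 nM DNA, 50 mM HEPES pH 8.0, 50 mM NaCl, 1 mM MnCl2, 1 h, 37 °C, three replicates). Uncut DNA was amplified and sequenced.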
# [2] = system: T2, Rep nickase domain of banana bunchy top virus
# T2 sequence (residues 1-94, tag not shown): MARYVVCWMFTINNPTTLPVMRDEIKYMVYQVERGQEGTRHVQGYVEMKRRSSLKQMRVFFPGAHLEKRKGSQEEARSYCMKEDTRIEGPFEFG
# Protocol: as §1
# [3] = system: T3, Rep nickase domain of cabbage leaf curl virus
# T3 sequence (residues 1-116, tag not shown): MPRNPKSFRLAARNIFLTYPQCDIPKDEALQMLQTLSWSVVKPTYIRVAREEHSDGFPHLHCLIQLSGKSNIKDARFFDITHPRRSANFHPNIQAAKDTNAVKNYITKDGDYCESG
# Protocol: as §1
# [4] = system: T4, Rep nickase domain of chickpea chlorotic dwarf virus
# T4 sequence (residues 1-124, tag not shown): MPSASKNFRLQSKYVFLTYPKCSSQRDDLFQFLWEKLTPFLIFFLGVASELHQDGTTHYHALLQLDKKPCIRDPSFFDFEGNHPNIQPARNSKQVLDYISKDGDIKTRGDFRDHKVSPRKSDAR
# Protocol: as §1
# [5] = system: T5, Rep nickase domain of faba bean necrotic yellows virus
# T5 sequence (residues 1-98, tag not shown): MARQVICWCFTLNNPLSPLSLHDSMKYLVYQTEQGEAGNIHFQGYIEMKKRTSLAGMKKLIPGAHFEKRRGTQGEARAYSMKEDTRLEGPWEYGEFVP
# Protocol: as §1
# [6] = system: T6, Rep nickase domain of maize striate mosaic virus
# T6 sequence (residues 1-117, tag not shown): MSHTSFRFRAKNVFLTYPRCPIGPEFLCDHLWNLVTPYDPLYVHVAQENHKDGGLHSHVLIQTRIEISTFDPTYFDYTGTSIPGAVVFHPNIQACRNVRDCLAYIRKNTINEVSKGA
# Protocol: as §1
# [7] = system: T7, Rep nickase domain of porcine circovirus 2
# T7 sequence (residues 2-116, tag not shown): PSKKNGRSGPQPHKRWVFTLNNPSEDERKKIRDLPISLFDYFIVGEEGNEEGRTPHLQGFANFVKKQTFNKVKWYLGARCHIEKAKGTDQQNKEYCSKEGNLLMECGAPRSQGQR
# Protocol: as §1
# [8] = system: T8, Rep nickase domain of tomato golden mosaic virus
# T8 sequence (residues 1-124, tag not shown): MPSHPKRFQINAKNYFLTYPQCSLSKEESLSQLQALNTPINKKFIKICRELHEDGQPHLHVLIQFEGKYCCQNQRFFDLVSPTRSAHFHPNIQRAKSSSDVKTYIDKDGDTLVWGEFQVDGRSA
# Protocol: as §1
# [9] = system: T9, Rep nickase domain of tomato yellow leaf curl virus
# T9 sequence (residues 1-136, tag not shown): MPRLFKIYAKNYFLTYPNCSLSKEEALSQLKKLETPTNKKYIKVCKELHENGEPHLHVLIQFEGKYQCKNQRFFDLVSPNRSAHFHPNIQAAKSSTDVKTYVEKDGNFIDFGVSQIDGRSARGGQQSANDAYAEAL
# Protocol: as §1
# [10] = system: T10, Rep nickase domain of wheat dwarf virus
# T10 sequence (residues 1-137, tag not shown): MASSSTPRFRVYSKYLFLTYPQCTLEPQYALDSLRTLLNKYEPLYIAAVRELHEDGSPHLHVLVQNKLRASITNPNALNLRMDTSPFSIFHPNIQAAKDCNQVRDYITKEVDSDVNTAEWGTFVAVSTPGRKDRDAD
# Protocol: as §1
Sequence,uncleaved DNA left (log2) [1],uncleaved DNA left (log2) [2],uncleaved DNA left (log2) [3],uncleaved DNA left (log2) [4],uncleaved DNA left (log2) [5],uncleaved DNA left (log2) [6],uncleaved DNA left (log2) [7],uncleaved DNA left (log2) [8],uncleaved DNA left (log2) [9],uncleaved DNA left (log2) [10]
GAAATCT,0.101,0.141,-1.14,-2.41,0.0392,0.587,-0.638,-0.0333,0.015,-0.254
TGAGCCT,-0.00969,-0.0282,0.154,-0.316,0.0936,0.365,-0.0875,-0.109,-0.0997,0.0117
TTGAGAA,-0.0034,-0.112,-0.00947,0.0112,0.00104,-0.681,-0.261,-0.0893,-0.0281,-0.0264
GGTACCG,0.0464,0.0273,-0.22,-0.297,-0.0114,-0.37,0.0274,-0.046,-0.0313,-1.17e-06
GGCACAG,0.00384,0.091,0.657,1.7,0.0538,1.84,0.1,0.0897,0.0105,0.129
CAAATAA,-0.0255,0.111,-0.201,-0.594,0.0392,-0.685,0.124,0.105,-0.0383,0.0748
TCGATTC,0.00932,-0.0933,0.169,-0.101,-0.0876,-0.542,0.0592,-0.119,0.0438,0.029
AGACGTT,0.107,0.0248,0.43,-0.51,0.029,1.48,-0.00608,0.0568,-0.0911,0.0512
CTATGCG,-0.141,-0.165,-0.696,0.582,0.0166,-0.286,-0.0418,-0.158,-0.367,-0.284
CAATGCC,0.0213,-0.127,-1.83,-2.49,-0.0331,-1.38,-1.18,-0.131,0.0363,-0.366
CGTCCTT,-0.0512,0.0951,0.166,-1.19,0.0194,0.134,-0.328,-0.165,0.155,0.0478
TAATTAT,-3.58,-0.677,-4.6,-3.56,0.169,-3.33,-4.09,-4.14,-1.79,-4.72
GAGTGAA,0.208,0.123,0.377,0.708,0.0454,1.23,-2.31,0.132,0.106,0.239
ATTAGCC,0.0418,0.0287,-0.426,-0.318,0.045,-1.02,0.146,0.0362,0.0723,-0.00604
TCCCCTT,-0.0926,-0.0557,0.032,-1.41,-0.103,-0.0559,-0.378,-0.0209,0.0826,-0.0542
AATTGTT,-3.75,-4.09,-3.19,-3.28,-1.57,-2.35,-4.51,-1.56,0.0441,-1.3
ATGCGGC,-0.0559,-0.00964,-0.309,-0.553,-0.00308,-0.946,0.146,-0.0744,-0.0443,-0.0669
CGAGGCG,-0.183,-0.118,-0.837,0.157,-0.117,-0.782,0.0343,-0.0627,0.0884,-0.21
CGCGTTC,0.0424,-0.0347,-0.0333,-0.431,0.0467,-0.622,-0.0226,-0.1,0.00112,-0.0324
AACATGC,-0.0603,-0.0287,-0.688,-0.346,-0.022,-1.05,0.0796,-0.104,0.0547,-0.102

Sequence,uncleaved DNA left (log2) [1],uncleaved DNA left (log2) [2],uncleaved DNA left (log2) [3],uncleaved DNA left (log2) [4],uncleaved DNA left (log2) [5],uncleaved DNA left (log2) [6],uncleaved DNA left (log2) [7],uncleaved DNA left (log2) [8],uncleaved DNA left (log2) [9],uncleaved DNA left (log2) [10]
AGATATA,0.00869,-0.0221,0.201,-0.792,0.157,0.111,-0.186,0.0387,0.00537,0.112
GCCAAGA,0.0151,-0.024,0.191,0.637,0.0543,-0.33,0.156,0.0885,-0.0256,-0.0215
GAAGAGC,0.203,0.171,0.105,0.465,0.0759,-0.309,0.234,0.149,0.177,0.0249
TTAACTG,0.0377,0.00613,-0.198,-0.137,-0.00817,1.23,0.066,0.0205,0.0279,0.16
TCCCAGA,-0.126,-0.0819,0.0466,-0.0476,-0.173,-0.582,0.059,-0.126,0.0172,-0.0552
TCCAGCC,0.00107,0.0392,-0.0979,-0.392,0.0582,-0.838,0.0103,-0.0506,-0.0676,-0.0253
ACGGACG,-0.0356,0.0358,-0.758,-0.582,0.0827,-0.973,0.268,0.0164,0.0672,-0.0875
GCCCCAT,-0.0711,0.073,0.226,0.392,-0.00179,0.616,-0.0276,-0.0929,0.0396,0.0594
CGCCCTT,-0.048,-0.0635,0.266,-0.615,-0.217,0.569,-0.357,-0.227,-0.0058,0.0855
CACGGAT,-0.0622,-0.218,0.135,1.41,-0.181,1.66,0.0431,-0.0199,-0.224,-0.153
CCGTCAA,0.0891,0.0205,0.267,0.0821,0.0199,-0.286,-0.0154,0.0779,0.0835,0.0521
GTTTCTC,0.00813,0.114,0.311,0.877,-0.0309,1.59,0.0681,-0.0131,-0.0111,0.0909
TAGTGAC,-0.131,-0.0263,0.207,0.584,-0.117,0.623,-0.292,-0.00146,-0.0674,-0.0451
TCCTTTA,-0.0874,-0.0712,0.201,-1.17,-0.0874,-0.469,-0.284,-0.0885,0.0423,-0.0958
GAGAATC,0.0568,0.0214,0.368,0.925,-0.013,1.29,0.0191,-0.0388,0.0794,0.213
GGGTGAC,0.092,0.214,0.821,1.95,0.13,2.28,0.26,0.177,0.112,0.227
TGGGCTA,-0.0244,0.00354,0.76,1.61,-0.0756,2.04,0.18,-0.101,-0.0535,-0.0269
CCCACGG,-0.0783,-0.102,0.421,1.33,0.0511,1.77,-0.0552,0.0854,-0.181,-0.0257
CATTTTA,-1.01,-1.23,-0.0704,-2.06,0.0865,-0.619,-1.75,0.121,0.133,0.16
GAGTAGC,0.0919,-0.0486,0.00504,0.152,-0.0499,-0.507,-0.446,-0.058,0.037,0.0306

Sequence,uncleaved DNA left (log2) [1],uncleaved DNA left (log2) [2],uncleaved DNA left (log2) [3],uncleaved DNA left (log2) [4],uncleaved DNA left (log2) [5],uncleaved DNA left (log2) [6],uncleaved DNA left (log2) [7],uncleaved DNA left (log2) [8],uncleaved DNA left (log2) [9],uncleaved DNA left (log2) [10]
TACAACT,-0.0269,-0.155,-2.24,-3.21,0.00488,-1.07,-3.15,-0.129,-0.0137,-0.186
TAAAAGG,0.106,0.00875,0.0923,0.412,0.0212,0.987,0.226,0.139,-0.115,0.016
AGAAGGA,0.125,0.132,0.279,0.673,0.141,0.112,0.206,0.153,0.00727,0.141
ACACCAA,-0.185,-0.0542,-0.252,-0.311,-0.0602,-0.682,-0.00634,-0.108,-0.193,-0.0882
GAGCATG,0.0905,0.142,-0.0381,0.713,-0.0157,1.32,0.154,0.0364,-0.0278,0.136
AATGAAC,0.161,0.111,0.137,0.52,0.2,0.806,0.328,0.155,0.11,0.154
AAGAAAC,0.192,0.0738,0.142,-0.123,0.176,-0.232,0.029,0.147,0.0612,0.194
GTTTAGG,-0.0146,0.032,0.523,1.3,-0.0186,1.76,0.202,0.175,-0.032,0.114
GGTGAAT,0.0282,0.0827,0.745,1.82,-0.0184,2.19,0.18,-0.0693,0.112,0.0845
TTAGACA,-0.0242,0.0416,0.459,-0.705,0.141,0.687,0.127,0.0532,0.122,0.138
AGCTCTG,0.0509,0.19,0.094,0.677,0.031,1.61,0.0937,0.117,-0.0506,0.0967
GGTTGTA,0.00674,-0.0244,0.333,0.79,-0.0656,1.46,0.039,0.0388,-0.0276,-0.000281
AAGTTCA,-0.0255,-0.147,-0.134,-2.14,-0.206,-0.444,-3.21,-0.0613,0.0152,0.0396
AACGGTC,-0.00671,-0.0173,0.0486,0.505,0.0191,0.521,0.0888,-0.00309,-0.0708,-0.0279
TCTTTAA,0.084,0.136,0.241,-0.166,0.17,-0.126,0.0429,0.119,0.2,0.106
CCACAGT,-0.14,-0.209,-0.668,-1.71,-0.0459,-0.881,-0.323,-0.189,-0.161,-0.297
GGGGCGA,-0.0462,0.0237,0.79,1.81,0.00482,2.16,0.215,0.102,-0.0275,0.0532
TTGATCC,-0.0946,-0.0778,0.112,0.0171,-0.172,-0.303,-0.082,-0.153,-0.0679,-0.0953
GTTATCG,0.0526,-0.0689,-0.447,-0.511,-0.00416,-0.722,0.164,-0.0401,-0.0559,-0.0887
TAGTAAC,-0.0229,-0.093,-0.128,-1.47,-0.202,-0.295,-3.28,-0.0259,-0.0208,-0.0337
